The values that follow come from publication doi:10.1101/2025.04.19.649678, “Allosteric modulation of dimeric GPR3 by ligands in the dimerization interface” (bioRxiv, 2025).

This data set deals with the molecule itself. Kind of data set: SEC; fluorescence-detection SEC (FSEC) of GPCR-mCherry from Expi293F cells solubilised in 1 % DDM, 0.1 % CHS; Zenix-C SEC-300 column, 20 mM HEPES, 150 mM NaCl, 100 μM TCEP, 0.03 % DDM, 0.003 % CHS.

B1: GPR3WT (GPCR-mCherry fusion construct) (receptor, UniProt P46089 1-330, looked up)
chain: MMWGAGSPLAWLSAGSGNVNVSSVGPAEGPTGPAAPLPSPKAWDVVLCISGTLVSCENALVVAIIVGTPAFRAPMFLLVGSLAVADLLAGLGLVLHFAAVFCIGSAEMSLVLVGVLAMAFTASIGSLLAITVDRYLSLYNALTYYSETTVTRTYVMLALVWGGALGLGLLPVLAWNCLDGLTTCGVVYPLSKNHLVVLAIAFFMVFGIMLQLYAQICRIVCRHAQQIALQRHLLPASHYVATRKGIATLAVVLGAFAACWLPFTVYCLLGDAHSPPLYTYLTLLPATYNSMINPIIYAFRNQDVQKVLWAVCCCCSSSKIPFRSRSPSDV
notes: source: Expi293F, transfected, in solubilised lysate (1 % DDM, 0.1 % CHS)
One may read the stoichiometry N as the number of molecules, sites or subunits per partner or assembly. In the case of B1, the “stoichiometry N” value came to 2.
